In the supplement of paper PMC8728848:
This is one part of the list.

Columns and labels:
Assay in all cases: glycan array binding signal (z-score within array); higher = stronger binding
Conditions in all cases: glycan notation: IUPAC condensed, linker removed
Neu5Ac(a2-3)Gal = target: Neu5Ac(a2-3)Gal
Procedure, shortened: (§1)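 From the Consortium for Functional Glycomics database, 3228 arrays were curated, keeping only those whose protein sequence was available. Binding is given as a within-array Z-score averaged across arrays sharing a protein sequence and across linkers. Negative Z-scores can be read as non-binding.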

[1] = target: Neu5Ac(a2-3)Gal(b1-3)GalNAc
Procedure, shortened: as §1

[2] = target: Neu5Ac(a2-3)Gal(b1-3)GalNAc(b1-3)Gal(a1-4)Gal(b1-4)Glc
Procedure, shortened: as §1

[3] = target: Neu5Ac(a2-3)Gal(b1-3)GalNAc(b1-3)Gal(b1-4)GlcNAc
Procedure, shortened: as §1

[4] = target: Neu5Ac(a2-3)Gal(b1-3)GalNAc(b1-4)[Neu5Ac(a2-3)]Gal(b1-4)Glc
Procedure, shortened: as §1

[5] = target: Neu5Ac(a2-3)Gal(b1-3)GalNAc(b1-4)[Neu5Ac(a2-8)Neu5Ac(a2-3)]Gal(b1-4)Glc
Procedure, shortened: as §1

[6] = target: Neu5Ac(a2-3)Gal(b1-3)GalNAc6S
Procedure, shortened: as §1

[7] = target: Neu5Ac(a2-3)Gal(b1-3)GlcNAc
Procedure, shortened: as §1

[8] = target: Neu5Ac(a2-3)Gal(b1-3)GlcNAc(b1-2)Man(a1-3)[Neu5Ac(a2-3)Gal(b1-3)GlcNAc(b1-2)Man(a1-6)]Man(b1-4)GlcNAc(b1-4)GlcNAc
Procedure, shortened: as §1

[9] = target: Neu5Ac(a2-3)Gal(b1-3)GlcNAc(b1-3)Gal(b1-3)GlcNAc
Procedure, shortened: as §1

[10] = target: Neu5Ac(a2-3)Gal(b1-3)GlcNAc(b1-3)Gal(b1-4)GlcNAc
Procedure, shortened: as §1

[11] = target: Neu5Ac(a2-3)Gal(b1-3)GlcNAc(b1-3)GalNAc
Procedure, shortened: as §1

[12] = target: Neu5Ac(a2-3)Gal(b1-3)GlcNAc6S
Procedure, shortened: as §1

[13] = target: Neu5Ac(a2-3)Gal(b1-3)[Fuc(a1-4)]GlcNAc
Procedure, shortened: as §1

[14] = target: Neu5Ac(a2-3)Gal(b1-3)[Fuc(a1-4)]GlcNAc(b1-3)Gal(b1-3)[Fuc(a1-4)]GlcNAc
Procedure, shortened: as §1

[15] = target: Neu5Ac(a2-3)Gal(b1-3)[Fuc(a1-4)]GlcNAc(b1-3)Gal(b1-4)[Fuc(a1-3)]GlcNAc
Procedure, shortened: as §1

[16] = target: Neu5Ac(a2-3)Gal(b1-3)[Neu5Ac(a2-3)Gal(b1-4)]GlcNAc
Procedure, shortened: as §1

[17] = target: Neu5Ac(a2-3)Gal(b1-3)[Neu5Ac(a2-6)]GalNAc
Procedure, shortened: as §1

Neu5Ac(a2-3)Gal(b1-4)Glc = target: Neu5Ac(a2-3)Gal(b1-4)Glc
Procedure, shortened: as §1

[18] = target: Neu5Ac(a2-3)Gal(b1-4)GlcNAc
Procedure, shortened: as §1

[19] = target: Neu5Ac(a2-3)Gal(b1-4)GlcNAc(b1-2)Man(a1-3)[GlcNAc(b1-2)Man(b1-4)GlcNAc(b1-2)Man(a1-6)]Man(b1-4)GlcNAc(b1-4)GlcNAc
Procedure, shortened: as §1

[20] = target: Neu5Ac(a2-3)Gal(b1-4)GlcNAc(b1-2)Man(a1-3)[Neu5Ac(a2-3)Gal(b1-4)GlcNAc(b1-2)Man(a1-6)]Man(b1-4)GlcNAc(b1-4)GlcNAc
Procedure, shortened: as §1

[21] = target: Neu5Ac(a2-3)Gal(b1-4)GlcNAc(b1-2)Man(a1-3)[Neu5Ac(a2-6)Gal(b1-4)GlcNAc(b1-2)Man(a1-6)]Man(b1-4)GlcNAc(b1-4)GlcNAc
Procedure, shortened: as §1

[22] = target: Neu5Ac(a2-3)Gal(b1-4)GlcNAc(b1-3)Gal
Procedure, shortened: as §1

[23] = target: Neu5Ac(a2-3)Gal(b1-4)GlcNAc(b1-3)Gal(b1-3)GlcNAc
Procedure, shortened: as §1

[24] = target: Neu5Ac(a2-3)Gal(b1-4)GlcNAc(b1-3)Gal(b1-4)GlcNAc
Procedure, shortened: as §1

[25] = target: Neu5Ac(a2-3)Gal(b1-4)GlcNAc(b1-3)Gal(b1-4)GlcNAc(b1-3)Gal(b1-4)GlcNAc
Procedure, shortened: as §1

[26] = target: Neu5Ac(a2-3)Gal(b1-4)GlcNAc(b1-3)Gal(b1-4)[Fuc(a1-3)]GlcNAc
Procedure, shortened: as §1

[27] = target: Neu5Ac(a2-3)Gal(b1-4)GlcNAc(b1-3)GalNAc
Procedure, shortened: as §1

[28] = target: Neu5Ac(a2-3)Gal(b1-4)GlcNAc(b1-6)[Gal(b1-3)]GalNAc
Procedure, shortened: as §1

[29] = target: Neu5Ac(a2-3)Gal(b1-4)GlcNAc(b1-6)[Neu5Ac(a2-3)Gal(b1-3)]GalNAc
Procedure, shortened: as §1

[30] = target: Neu5Ac(a2-3)Gal(b1-4)GlcNAc6S
Procedure, shortened: as §1

[31] = target: Neu5Ac(a2-3)Gal(b1-4)[Fuc(a1-3)]GlcNAc
Procedure, shortened: as §1

[32] = target: Neu5Ac(a2-3)Gal(b1-4)[Fuc(a1-3)]GlcNAc(b1-3)Gal
Procedure, shortened: as §1

[33] = target: Neu5Ac(a2-3)Gal(b1-4)[Fuc(a1-3)]GlcNAc(b1-3)Gal(b1-4)GlcNAc
Procedure, shortened: as §1

[34] = target: Neu5Ac(a2-3)Gal(b1-4)[Fuc(a1-3)]GlcNAc(b1-3)Gal(b1-4)[Fuc(a1-3)]GlcNAc(b1-3)Gal(b1-4)[Fuc(a1-3)]GlcNAc
Procedure, shortened: as §1

[35] = target: Neu5Ac(a2-3)Gal(b1-4)[Fuc(a1-3)]GlcNAc(b1-3)GalNAc
Procedure, shortened: as §1

B1: ConA (Canavalia ensiformis), P02866 (protein)
chain: MAISKKSSLFLPIFTFITMFLMVVNKVSSSTHETNALHFMFNQFSKDQKDLILQGDATTGTDGNLELTRVSSNGSPQGSSVGRALFYAPVHIWESSAVVASFEATFTFLIKSPDSHPADGIAFFISNIDSSIPSGSTGRLLGLFPDANVIRNSTTIDFNAAYNADTIVAVELDTYPNTDIGDPSYPHIGIDIKSVRSKKTAKWNMQNGKVGTAHIIYNSVDKRLSAVVSYPNADSATVSYDVDLDNVLPEWVRVGLSASTGLYKETNTILSWSFTSKLKSNEIPDIATVV
Neu5Ac(a2-3)Gal
  glycan array binding signal (z-score): -0.283
[1]
  glycan array binding signal (z-score): -0.278
[2]
  glycan array binding signal (z-score): -0.203
[3]
  glycan array binding signal (z-score): -0.314
[4]
  glycan array binding signal (z-score): -0.252
[5]
  glycan array binding signal (z-score): -0.248
[6]
  glycan array binding signal (z-score): -0.279
[7]
  glycan array binding signal (z-score): -0.274
[8]
  glycan array binding signal (z-score): -0.354
[9]
  glycan array binding signal (z-score): -0.175
[10]
  glycan array binding signal (z-score): -0.256
[11]
  glycan array binding signal (z-score): -0.092
[12]
  glycan array binding signal (z-score): -0.136
[13]
  glycan array binding signal (z-score): -0.242
[14]
  glycan array binding signal (z-score): -0.22
[15]
  glycan array binding signal (z-score): -0.056
[16]
  glycan array binding signal (z-score): -0.255
[17]
  glycan array binding signal (z-score): 0.093
Neu5Ac(a2-3)Gal(b1-4)Glc
  glycan array binding signal (z-score): -0.26
[18]
  glycan array binding signal (z-score): -0.29
[19]
  glycan array binding signal (z-score): -0.041
[20]
  glycan array binding signal (z-score): 2.21
[21]
  glycan array binding signal (z-score): -0.267
[22]
  glycan array binding signal (z-score): -0.169
[23]
  glycan array binding signal (z-score): -0.263
[24]
  glycan array binding signal (z-score): -0.299
[25]
  glycan array binding signal (z-score): -0.269
[26]
  glycan array binding signal (z-score): -0.281
[27]
  glycan array binding signal (z-score): -0.211
[28]
  glycan array binding signal (z-score): -0.269
[29]
  glycan array binding signal (z-score): -0.251
[30]
  glycan array binding signal (z-score): -0.287
[31]
  glycan array binding signal (z-score): -0.273
[32]
  glycan array binding signal (z-score): -0.254
[33]
  glycan array binding signal (z-score): -0.223
[34]
  glycan array binding signal (z-score): -0.13
[35]
  glycan array binding signal (z-score): 0.005
